“And” between values parts separate entries of the source, which are not always exact repeats. Equal values may be shown once. The inconclusive results got no clear call from the source; some entries with a clear call stand among them for comparison. For some of these results: No potency is given beside an inconclusive call; the fits are too rough. The source made the active and inactive calls. Unless noted, calls follow the shape of the dose curve; as a rule, active = well fitted curve in the direction sought with a large enough effect in the repeat runs; inconclusive = weak or mixed curves; inactive = no such curve, though single readings can be large; an effect the other way counts as inactive or inconclusive.
Legend:
[1] = biological target: Androgen receptor (Homo sapiens) (UniProt P10275); assay: qHTS assay to identify small molecule agonists of the androgen receptor (AR) signaling pathway (AID 743036; active = well fitted activation curve with a large enough effect in the signal ratio in the repeat runs, with a control signal flat, not every such curve was filed as active; inconclusive = weak or mixed curves, or effect the other way; inactive = no such curve, though single readings can be large or run the other way; the % refers to the signal ratio; also: potency is read from the fitted curve at half-maximal effect; as to activation: % is scaled to controls: 0 for no effect and ±100 for the full control effect); conditions: HEK293 AR-UAS-bla GripTite, beta-lactamase FRET ratio, 16 h; activation: at 62.4 µM (top of the series) unless noted
UniProt P10275, sequence (P10275 whole entry, looked up): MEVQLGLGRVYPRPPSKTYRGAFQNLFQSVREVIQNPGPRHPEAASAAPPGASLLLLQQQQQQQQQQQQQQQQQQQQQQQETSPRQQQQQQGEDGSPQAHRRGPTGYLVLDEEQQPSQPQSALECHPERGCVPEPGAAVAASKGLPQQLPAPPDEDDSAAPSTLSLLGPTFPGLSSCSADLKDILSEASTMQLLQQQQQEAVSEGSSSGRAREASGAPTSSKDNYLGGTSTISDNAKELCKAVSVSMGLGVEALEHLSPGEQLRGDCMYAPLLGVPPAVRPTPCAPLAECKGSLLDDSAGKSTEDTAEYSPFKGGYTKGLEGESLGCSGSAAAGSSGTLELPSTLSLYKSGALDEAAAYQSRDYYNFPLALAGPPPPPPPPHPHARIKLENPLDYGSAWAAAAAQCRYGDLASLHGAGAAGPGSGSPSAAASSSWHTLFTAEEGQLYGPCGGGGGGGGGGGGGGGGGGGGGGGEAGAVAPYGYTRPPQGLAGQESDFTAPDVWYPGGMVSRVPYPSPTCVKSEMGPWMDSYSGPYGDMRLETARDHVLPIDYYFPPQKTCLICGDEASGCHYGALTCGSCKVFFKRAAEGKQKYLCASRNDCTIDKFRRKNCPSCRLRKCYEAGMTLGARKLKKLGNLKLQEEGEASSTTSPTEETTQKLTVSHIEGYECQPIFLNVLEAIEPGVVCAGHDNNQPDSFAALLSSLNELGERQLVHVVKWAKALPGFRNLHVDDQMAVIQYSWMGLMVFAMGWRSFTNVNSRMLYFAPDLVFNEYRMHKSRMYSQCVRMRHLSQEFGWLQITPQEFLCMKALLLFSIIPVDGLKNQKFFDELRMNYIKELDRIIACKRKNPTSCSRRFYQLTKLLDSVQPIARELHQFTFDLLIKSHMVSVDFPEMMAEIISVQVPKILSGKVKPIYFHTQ
In short: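 Cell-based FRET reporter assay: HEK293 line with a UAS-beta-lactamase construct, compounds added in DMSO, 16 h exposure at 37C, then 2 h substrate step at room temperature and fluorescence intensity read.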

[2] = qHTS assay to identify small molecule antagonists of the TGF-beta/Smad signaling pathway (AID 1346924; active = well fitted inhibition curve with a large enough effect in the signal ratio in the repeat runs, not every such curve was filed as active; inconclusive = weak or mixed curves; the % refers to the signal ratio); conditions: SBE-bla HEK293T, TGF-beta/Smad reporter, beta-lactamase ratio; activity, negative = inhibition: at 76.8 µM (top of the series) unless noted
In short: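 Read-out was FRET-substrate fluorescence (405 nm excitation; 460 and 530 nm emission) after 2 h at room temperature. Before that, cells carrying a Smad-binding-element beta-lactamase reporter in HEK 293T had been stimulated 5 h at 37 C with TGF-beta1 (0.25 ng/mL addition solution) in the presence of test compound.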

[3] = qHTS assay to identify small molecule antagonists of the glucocorticoid receptor (GR) signaling pathway - cell viability counter screen (AID 720693); conditions: GR-bla HeLa viability, CellTiter-Glo luminescence, 18 h, with 5 nM dexamethasone present; viability change, negative = cytotoxic: at 58.5 µM (top of the series); also: nearly all actives have a fitted effect of over 55% in size; also: potency is read from the fitted curve at half-maximal effect; as to viability change, negative = cytotoxic: % is scaled to controls: 0 for no effect and ±100 for the full control effect
[4] = qHTS assay to identify small molecule antagonists of the sonic hedgehog signaling (Shh) pathway - cell viability counter screen (AID 1259367); also: nearly all actives have a fitted effect of over 55% in size; also: potency is read from the fitted curve at half-maximal effect; as to viability change, negative = cytotoxic: % is scaled to controls: 0 for no effect and ±100 for the full control effect
In short: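 Fluorescence read-out (CellTiter-Fluor, 1 hr at 37C) taken after 23 hr compound treatment of 3T3 Gli1-Luc cells stimulated with conditioned medium. Cells were seeded at 2,000 per well and pre-incubated 4 hr.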

[5] = qHTS assay to identify small molecule antagonists of the androgen receptor (AR) signaling pathway - cell viability counter screen (AID 743033; also: nearly all actives have a fitted effect of over 45% in size; also: potency is read from the fitted curve at half-maximal effect); conditions: AR-bla HEK293 viability, CellTiter-Glo luminescence, 16 h; activity change, negative = cytotoxicity: at 58.5 µM (top of the series) unless noted
[6] = qHTS assay to identify small molecule antagonists of the estrogen receptor alpha (ER-alpha) signaling pathway using the BG1 cell line - cell viability counter screen (AID 743081); conditions: BG1Luc4E2 viability, CellTiter-Fluor, 22 h; activity change, negative = cytotoxicity: at 70.3 µM (top of the series) unless noted;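 also: compound given together with 17beta-estradiol as the ER stimulus; nearly all actives have a fitted effect of over 45% in size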; also: potency is read from the fitted curve at half-maximal effect
[7] = biological target: Aromatase (Homo sapiens) (UniProt P11511); assay: qHTS assay to identify aromatase inhibitors (AID 743083); also: nearly all actives have a fitted effect of over 55% in size; also: potency is read from the fitted curve at half-maximal effect
UniProt P11511, sequence (P11511 whole entry, looked up): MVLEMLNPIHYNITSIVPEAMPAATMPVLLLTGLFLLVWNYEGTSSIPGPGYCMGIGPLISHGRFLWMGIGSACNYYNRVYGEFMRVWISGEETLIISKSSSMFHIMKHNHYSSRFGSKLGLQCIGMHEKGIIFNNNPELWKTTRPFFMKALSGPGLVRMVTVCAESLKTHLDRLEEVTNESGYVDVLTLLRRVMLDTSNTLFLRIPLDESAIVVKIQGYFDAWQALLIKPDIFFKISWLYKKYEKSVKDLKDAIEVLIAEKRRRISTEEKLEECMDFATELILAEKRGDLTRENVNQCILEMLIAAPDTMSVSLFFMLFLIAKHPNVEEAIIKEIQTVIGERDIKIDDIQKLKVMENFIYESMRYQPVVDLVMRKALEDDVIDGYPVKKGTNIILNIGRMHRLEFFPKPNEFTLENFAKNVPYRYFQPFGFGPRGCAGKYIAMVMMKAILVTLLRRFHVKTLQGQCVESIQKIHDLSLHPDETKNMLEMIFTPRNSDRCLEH

[8] = qHTS assay to identify aromatase inhibitors - cell viability counter screen (AID 743084); conditions: MCF-7 aro ERE viability, CellTiter-Fluor, 24 h; activity change, negative = cytotoxicity: at 70.3 µM (top of the series) unless noted;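 also: cells stimulated with testosterone during compound exposure; nearly all actives have a fitted effect of over 55% in size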; also: potency is read from the fitted curve at half-maximal effect
[9] = qHTS assay for small molecule activators of the heat shock response signaling pathway (AID 743210; active = well fitted activation curve with a large enough effect in the signal ratio in the repeat runs, with a control signal flat, not every such curve was filed as active; inconclusive = weak or mixed curves; the % refers to the signal ratio;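 also: HeLa cells with beta-lactamase reporter driven by heat shock elements; % is scaled to controls: 0 for no effect and ±100 for the full control effect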); conditions: HeLa HSE-bla reporter, beta-lactamase ratio, 5 h; activation: at 62.6 µM (top of the series) unless noted
In short: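 Beta-lactamase reporter read-out: FRET substrate fluorescence after 2.5 h at RT, following 5 h compound treatment at 37 C of HeLa cells carrying HSE-driven bla reporter; quantitative HTS format.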

[10] = Caspase-3/7 induction in HepG2 cells by small molecules, qHTS cell viability counter screen (AID 1346981); also: nearly all actives have a fitted effect of over 30% in size; also: potency is read from the fitted curve at half-maximal effect
In short: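 Treatment of HepG2 cells with DMSO-delivered compounds ran 16 hr at 37 C following a 5-hr pre-incubation of 2,000 cells/well. CellTiter-Fluor fluorescence, read after 1 hr, served as the viability measure in a qHTS format.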

[11] = A CellTox Green Cytotoxicity Assay to monitor cytotoxicity in HepG2 cells - 32 hour (AID 1224883); also: potency is read from the fitted curve at half-maximal effect; nearly all actives have a fitted effect of over 50% in size
In short: (§1)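 Measurements at 0, 8, 16, 24, 32 and 40 h of treatment captured CellTox Green fluorescence in HepG2 cells that had been co-plated with reagent and preincubated 5 h at 37 C/5% CO2.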

[12] = A CellTox Green Cytotoxicity Assay to monitor cytotoxicity in HepG2 cells - 8 hour (AID 1224890); also: nearly all actives have a fitted effect of over 45% in size; also: potency is read from the fitted curve at half-maximal effect
In short: as §1

[13] = qHTS RealTime-Glo MT Cell Viability Assay in HepG2 cells - 32 hour (AID 1224877)
In short: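 Tox21 10K library screened in qHTS format on HepG2 cells carrying RealTime-Glo reagents. Compounds were added after a 5 h preincubation, and the luminescent signal from continuous culture was measured repeatedly during 40 h treatment.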

[14] = qHTS assay to identify small molecule agonists of the peroxisome proliferator-activated receptor delta (PPARd) signaling pathway - cell viability counter screen (AID 743211); conditions: PPARd-bla HEK293H viability, CellTiter-Glo luminescence, 17 h; activity change, negative = cytotoxicity: at 62.6 µM (top of the series) unless noted; also: nearly all actives have a fitted effect of over 55% in size; also: potency is read from the fitted curve at half-maximal effect
In short: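 qHTS cell viability: PPARd-bla HEK293H; 17 h cpd, 37C; CellTiter-Glo, luminescence at 30 min RT.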

[15] = qHTS assay for small molecule disruptors of the mitochondrial membrane potential - cell viability (AID 720634; calls by dose curve;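 also: human HepG2 liver cancer cells; % is scaled to controls: 0 for no effect and ±100 for the full control effect; nearly all actives have a fitted effect of over 20% in size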)
In short: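 In this qHTS format, HepG2 cells plated overnight were pinned with compound, incubated 1 hr, and assayed for ATP luminescence with CellTiter-Glo after m-MPI dye addition.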

[16] = tested on: thyroid hormone receptor (rat, GH3 cells); assay: qHTS assay to identify small molecule agonists of the thyroid receptor (TR) signaling pathway (AID 743066; calls by dose curve; also: potency is read from the fitted curve at half-maximal effect); conditions: GH3.TRE-Luc cells, TR agonist luciferase, 24 h; activation: at 83.9 µM (top of the series) unless noted
[17] = biological target: Aryl hydrocarbon receptor (Homo sapiens) (UniProt P35869); assay: qHTS assay to identify small molecule that activate the aryl hydrocarbon receptor (AhR) signaling pathway (AID 743085); also: nearly all actives have a fitted effect of over 15% in size; also: potency is read from the fitted curve at half-maximal effect
UniProt P35869, sequence (P35869 whole entry, looked up): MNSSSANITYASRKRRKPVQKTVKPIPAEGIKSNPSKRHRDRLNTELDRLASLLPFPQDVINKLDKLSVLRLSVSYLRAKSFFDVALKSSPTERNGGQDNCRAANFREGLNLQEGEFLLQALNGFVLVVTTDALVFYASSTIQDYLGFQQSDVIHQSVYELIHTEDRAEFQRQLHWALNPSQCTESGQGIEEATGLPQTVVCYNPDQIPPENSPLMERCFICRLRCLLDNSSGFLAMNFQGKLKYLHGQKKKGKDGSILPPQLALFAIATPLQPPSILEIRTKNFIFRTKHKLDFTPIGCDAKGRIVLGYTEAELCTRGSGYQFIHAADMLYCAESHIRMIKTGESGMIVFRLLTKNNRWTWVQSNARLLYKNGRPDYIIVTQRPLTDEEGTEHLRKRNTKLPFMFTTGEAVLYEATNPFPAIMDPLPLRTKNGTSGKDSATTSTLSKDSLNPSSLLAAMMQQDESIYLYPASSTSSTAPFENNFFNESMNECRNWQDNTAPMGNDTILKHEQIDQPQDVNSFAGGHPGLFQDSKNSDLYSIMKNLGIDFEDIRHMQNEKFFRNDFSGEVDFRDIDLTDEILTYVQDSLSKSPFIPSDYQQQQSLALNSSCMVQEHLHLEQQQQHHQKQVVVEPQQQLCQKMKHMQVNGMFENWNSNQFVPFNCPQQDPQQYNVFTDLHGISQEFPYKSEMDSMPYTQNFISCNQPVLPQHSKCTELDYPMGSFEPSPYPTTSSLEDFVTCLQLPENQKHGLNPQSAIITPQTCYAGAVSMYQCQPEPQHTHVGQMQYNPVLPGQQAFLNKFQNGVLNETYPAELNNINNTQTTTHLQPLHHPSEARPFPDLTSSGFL
In short: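 AhR agonist activity is inferred from enhanced light output of a DRE-controlled firefly luciferase reporter in HepG2 cells, measured with ONE-Glo following 24 h treatment at 37C.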

[18] = qHTS assay to identify small molecule HDAC inhibitors - cell viability counter screen (AID 1259365); also: % is scaled to controls: 0 for no effect and ±100 for the full control effect; nearly all actives have a fitted effect of over 50% in size
In short: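 After overnight seeding at 1,500 cells per well, wild-type HCT-116 cultures took up compounds in DMSO for 2hr at 37 C. Viable cell content came from luminescence with CellTiter-Glo.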
Tags tell the direction and shape of the fitted curve or compound fluorescence and quenching.

Nc1ccc(S(=O)(=O)Nc2ccccn2)cc1
Potency [1]: inconclusive [activator, single point]

CCOc1ccccc1O
activity, negative = inhibition [2]: inconclusive: 3.54%

CCCCN(CCCC)CCCC
Potency [3]: inactive

CC(O)CN (stereo not given)
Potency [4]: inactive

CC(=O)O[C@@]12CO[C@@H]1C[C@H](O)[C@@]1(C)C(=O)[C@H](O)C3=C(C)[C@@H](OC(=O)[C@H](O)[C@@H](NC(=O)OC(C)(C)C)c4ccccc4)C[C@@](O)([C@@H](OC(=O)c4ccccc4)[C@H]21)C3(C)C
Potency [5]: inconclusive [cytotoxic, partial curve, poor fit] | activation [1]: inconclusive: 7.02% and inconclusive: -11.6% | Potency [6]: inconclusive [cytotoxic, single point] | Potency [7]: inconclusive [inhibitor] | Potency [8]: inconclusive [cytotoxic, partial curve, poor fit] | Potency [9]: inactive | Potency [4]: inconclusive [cytotoxic, partial curve] | Potency [10]: inconclusive [cytotoxic, single point]

CC(C)(C)NC[C@H](O)COc1cccc2c1CCCC2=O
Potency [5]: inconclusive [cytotoxic, full curve, poor fit] | Potency [6]: inactive

CC1(C)SC(C)(C)SC(C)(C)S1
Potency [1]: inactive | Potency [11]: inconclusive [activator, single point] | Potency [12]: inconclusive [activator, partial curve]

CC1(C)COCN1
Potency [13]: inactive

CCCCC(CC)(CO)CO
Potency [10]: inactive

CCOCCn1c(C2CCN(CCc3ccc(C(C)(C)C(=O)O)cc3)CC2)nc2ccccc21
Potency [11]: inconclusive [activator, partial curve] | Potency [12]: inconclusive [activator, partial curve, poor fit]

CCCCCCCC(=O)O
activity, negative = inhibition [2]: inconclusive: 0.607%

O=C(O)c1cc(Cl)cc(Cl)c1
Potency [14]: inconclusive [rising, single point]

CN1CC(=O)NC1=N
activation [1]: inconclusive: 1.39%

C=C(C)C(=O)OCCNC(C)(C)C
activity, negative = inhibition [2]: inconclusive: 1.58%

CCCCCCCCCCCCSCCOCCO
Potency [12]: inactive

CCCN(CCC)C(=O)SCC
Potency [15]: inactive | Potency [1]: inconclusive [activator, single point] and inactive | Potency [16]: inconclusive [activator, partial curve, poor fit] | activation [16]: inconclusive: 2.99% [phenotype inactive] | Potency [4]: inactive

NC(=O)c1cc[n+](CC2=C(C(=O)[O-])N3C(=O)[C@@H](NC(=O)Cc4cccs4)[C@H]3SC2)cc1
Potency [5]: inconclusive [rising, full curve, poor fit]

C=CC(C)=CCC=C(C)C
Potency [10]: inactive

CC(=O)Nc1ccn(C2COC(COC(=O)c3ccccc3)O2)c(=O)n1 (stereo not given)
Potency [16]: inactive | Potency [7]: inconclusive [inhibitor, partial curve, poor fit] | Potency [9]: inactive

CC(C)Nc1nc(N)nc(Cl)n1
Potency [17]: inconclusive [activator, partial curve, poor fit]

NS(=O)(=O)Cc1noc2ccccc12
Potency [8]: inactive | Potency [18]: inactive | Potency [4]: inactive

CC(C)(C)c1cc(C=O)cc(C(C)(C)C)c1O
Potency [18]: inactive

CCCC(C)CC (stereo not given)
Potency [15]: inactive | Potency [9]: inactive

COCCOC(=O)c1ccccc1C(=O)OCCOC
Potency [11]: inconclusive [activator, partial curve, poor fit] | Potency [12]: inconclusive [activator, single point]

C[Si](C)(C)O[Si](C)(C)O[Si](C)(C)C
Potency [7]: inactive | Potency [13]: inactive

C=C(C)C(=O)NCCCN(C)C
activation [16]: inconclusive: 0.267% [phenotype inactive]

CC(C)[C@H]1CC[C@@H](C)CC1=O
activity, negative = inhibition [2]: inconclusive: -0.529% | Potency [10]: inactive

O=C1OC(=O)C2CCCCC12 (stereo not given)
Potency [7]: inactive

C1CCN2C[C@@H]3C[C@@H](CN4CCCC[C@@H]34)[C@H]2C1
Potency [3]: inconclusive [rising, partial curve, poor fit] | Potency [6]: inconclusive [rising, full curve] | Potency [13]: inactive

CCCCCO
Potency [6]: inconclusive [cytotoxic, single point]

CCn1cc(C(=O)O)c(=O)c2cc(F)c(N3CCNCC3)nc21
Potency [15]: inactive | Potency [5]: inactive

CCNC(=O)C(C)OC(=O)Nc1ccccc1 (stereo not given)
Potency [9]: inactive

CNc1ccccc1
Potency [15]: inactive | Potency [3]: inconclusive [rising, partial curve, poor fit] | Potency [16]: inactive | Potency [4]: inactive

CC(C)=CCCC(C)O (stereo not given)
Potency [13]: inactive

CCCCCCCCCCCl
Potency [3]: inconclusive [rising, partial curve, poor fit] | Potency [17]: inactive

CCCC[O][Al]([O]CCCC)[O]CCCC
Potency [14]: inactive

CCC(C(=O)NC(=O)NC(C)=O)c1ccccc1 (stereo not given)
Potency [6]: inconclusive [cytotoxic, single point]

CCCCOCCOC(=O)COc1ccc(Cl)cc1Cl
Potency [14]: inactive

COC(=O)[C@@H]1CC2=CC(=O)CC[C@]2(C)[C@@]23O[C@@H]2C[C@@]2(C)[C@@H](CC[C@@]24CCC(=O)O4)[C@H]13
Potency [15]: inactive | Potency [16]: inactive

From PubChem BioAssay (Tox21)
